Some of the results follow.

The experiment concerns the target T1, OsWOX13 (Oryza sativa, UniProt Q5QMM3 1-267).
T1 sequence: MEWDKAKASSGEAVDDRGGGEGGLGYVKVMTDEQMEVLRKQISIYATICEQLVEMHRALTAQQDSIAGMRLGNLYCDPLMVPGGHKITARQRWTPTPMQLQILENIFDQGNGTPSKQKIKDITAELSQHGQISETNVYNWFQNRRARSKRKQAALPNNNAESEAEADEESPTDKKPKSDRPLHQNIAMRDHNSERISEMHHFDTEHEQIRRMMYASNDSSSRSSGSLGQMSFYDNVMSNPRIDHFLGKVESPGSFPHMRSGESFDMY
Nature of the experiment: protein-binding microarray (RPBM); PBS, 2% BSA, 51.3 ng/ul salmon testes DNA, 50 uM zinc acetate, 200 nM TF, 25 C, 1 h; high values mean tight binding. The settings on record: protein: recombinant; tags: N-terminal polyhistidine and DsRed monomer fusion (pET32a); label: CyDye5-dUTP incorporated in the synthesized complementary strand; 3' TTTTT single-stranded linker to array surface; dsDNA, one strand shown. The procedure, abridged:
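An Axon 4000B scanner gave the binding signal as per-feature fluorescence intensity in arbitrary units. This followed washing of a custom Agilent array that had been incubated for 1 h at 25 °C with 200 nM protein in PBS, 2% BSA, salmon testes DNA and 50 µM zinc acetate. The proteins were transcription factors fused at the N-terminus to polyhistidine and DsRed, expressed in E. coli BL21-CodonPlus and purified on Ni–NTA.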
Take “GTTTGTGATTAATCTGATTTCGTACTATTAACGTGCAACTCGGAGTCACCTAGTGCAG”: the binding signal was 31300 fluorescence intensity (a.u.). To “TAACTTACTGATTGGACAATATTGCAGAACGTCCACTCCGCGGAGTCACCTAGTGCAG” belongs 27900 fluorescence intensity (a.u.); to “TCAAATTTTGATAGATTTTGGTAAGGTTGCAATGGTAAAACGGAGTCACCTAGTGCAG”, 20400 fluorescence intensity (a.u.); to “ATTTTCTTCCCAACCAATCACAACTCTCCACCATTCACTTCGGAGTCACCTAGTGCAG”, 3400 fluorescence intensity (a.u.).

Regarding “TTTCTGATAATGGAATGATGAAATCATGTATCATACCCATCGGAGTCACCTAGTGCAG”, the binding signal is 9080 fluorescence intensity (a.u.). With “CCCGATTTAAATCTAGATTGTTCTGCCTTGTTATGTCAGACGGAGTCACCTAGTGCAG”, the binding signal was 28900 fluorescence intensity (a.u.). To “TTCACAAATTGGCCATCTTATTCTTTTCGTAGCGTGCAAACGGAGTCACCTAGTGCAG” belongs 10200 fluorescence intensity (a.u.); to “ATTCCACGGTCAAATCTTGAGATTGACGAATTCACGACAACGGAGTCACCTAGTGCAG”, 5440 fluorescence intensity (a.u.). With “TTTGATATGATAGAAGCCCAACCTAATATGTATGAAACATCGGAGTCACCTAGTGCAG”, the binding signal is 7740 fluorescence intensity (a.u.). Consider “CCTCTTGATTGATTGCTCGGTCGACTGATTGCTTCTTACACGGAGTCACCTAGTGCAG”, for which the binding signal is 65000 fluorescence intensity (a.u.).

Regarding “GCAGCAGAAGCACGGGGATGATTGGCCAGATCGGGTTAGGCGGAGTCACCTAGTGCAG”, the binding signal is 3150 fluorescence intensity (a.u.). Consider “TGTAAATGATGCTTCTATTTTACTTGAGTTCATTATGAGGCGGAGTCACCTAGTGCAG”, for which the binding signal was 3290 fluorescence intensity (a.u.). In the case of “TCTCGCCTCTGCTCGTTTTGATTGCCAATTGGGCTTGGATCGGAGTCACCTAGTGCAG” it was 7480 fluorescence intensity (a.u.). In the case of “GATTAATTAGGCTTAATAAATTCGTCTCACGTTTACTGACCGGAGTCACCTAGTGCAG” it was 39300 fluorescence intensity (a.u.); in that of “CTTGACGGGCTTTCATTAAAGGCCTGGCCCAACCCATCACCGGAGTCACCTAGTGCAG”, 3550 fluorescence intensity (a.u.). In the case of “GAAATCAGCCGCCAAGATTACACTTTAATTTGGCGGTTCACGGAGTCACCTAGTGCAG”, the binding signal is 4820 fluorescence intensity (a.u.).

Consider “CTATAGTCAATTTAATAATCAATTCATACAATAATTACCTCGGAGTCACCTAGTGCAG”, for which the binding signal is 22300 fluorescence intensity (a.u.). To “TCTAATTTACAACATTGATTTTGTTTAACAAAACGCTAGACGGAGTCACCTAGTGCAG” belongs 29900 fluorescence intensity (a.u.); to “TATGGGAATAAGGGATGCCAATCAACTTGACGTAAAGTTACGGAGTCACCTAGTGCAG”, 3450 fluorescence intensity (a.u.); to “TTATGATTATTTTAGAATTTTCAAAATCATGGAATATAATCGGAGTCACCTAGTGCAG”, 7490 fluorescence intensity (a.u.). In the case of “TTTTCAGATAATTAACACAACACAGCTCACGGTTTCGTCTCGGAGTCACCTAGTGCAG” it was 7280 fluorescence intensity (a.u.); in that of “ATAAAATATATGATTTGCTATTCATACTAATAAAATACAACGGAGTCACCTAGTGCAG”, 3770 fluorescence intensity (a.u.). As for “AGTTTGATGATAAAAGATGGAGATACGTTTGATTTATGATCGGAGTCACCTAGTGCAG”, the binding signal is 3330 fluorescence intensity (a.u.). “CATCTGATTACTCCATGCTCTCAAATCGTAACCTCCAACACGGAGTCACCTAGTGCAG”: the binding signal is 13800 fluorescence intensity (a.u.). In the case of “AGCCAATCAAAGGCACACGTAGGACGAGACCCCATCCAACCGGAGTCACCTAGTGCAG” it was 10500 fluorescence intensity (a.u.). In the case of “GCGTGATTAATCATGGCCATTAACTACCAGTTGCAGATTGCGGAGTCACCTAGTGCAG”, the binding signal is 34900 fluorescence intensity (a.u.). On to “GTGCAAATTGTCCATTGACCCATACAAAGGAGATTGTTCTCGGAGTCACCTAGTGCAG”, for which the binding signal was 3470 fluorescence intensity (a.u.).

With “TCGGTAAATTATTCGAGCCATTCCTCTTCAAGTTCTCCCACGGAGTCACCTAGTGCAG”, the binding signal was 3660 fluorescence intensity (a.u.). In the case of “GTTAACAATTTACTATTATGGATATCTGATGACAATACCACGGAGTCACCTAGTGCAG” it was 8390 fluorescence intensity (a.u.).

For the sequence “CATTCTAATTAACTCTAAATGAGTGAATTGCACTTTGTGCCGGAGTCACCTAGTGCAG”, the binding signal was 28500 fluorescence intensity (a.u.). For “TCCACATCCAATTAACAGCGGGCACAAGCTAGCCCTCGATCGGAGTCACCTAGTGCAG”, the binding signal was 7390 fluorescence intensity (a.u.). In the case of “CTTTAATTTGAAGGAAATATATATGAATGTTGGAGGATATCGGAGTCACCTAGTGCAG” it was 10300 fluorescence intensity (a.u.). In the case of “GCAGTGATTAGCATCATTATGCTTATGGAATGCAAAATCCCGGAGTCACCTAGTGCAG” it was 35400 fluorescence intensity (a.u.).

On to “TTGATAGGATACGGGATAAGTGATTTATTATCTGATACCACGGAGTCACCTAGTGCAG”, for which the binding signal was 9640 fluorescence intensity (a.u.). In the case of “TGTTTAATTATTCCTGCAAAACAAAGGGGAAAGTGCCTGTCGGAGTCACCTAGTGCAG” it was 7130 fluorescence intensity (a.u.); in that of “ATTTAATAACTAAATTTGATACCTCAAATGAATCAGTCAACGGAGTCACCTAGTGCAG”, 7340 fluorescence intensity (a.u.). Turning to “TTAACTATCCAATTTGCGCAAATGATCTCAGCTCAGCAGCCGGAGTCACCTAGTGCAG”, the binding signal was 8660 fluorescence intensity (a.u.).

With “ATGATTGATGTCTTTTATTTTCTTTGTACTAAGGAGCTTGCGGAGTCACCTAGTGCAG”, the binding signal was 62700 fluorescence intensity (a.u.). In the case of “GTAAATATTCGTTTGATTTGTACATATTAATCGTGCAGCTCGGAGTCACCTAGTGCAG” it was 8330 fluorescence intensity (a.u.); in that of “GTTGTTCAATCATTCAACCCAAATAAACCACCCGACTAGACGGAGTCACCTAGTGCAG”, 12700 fluorescence intensity (a.u.); in that of “TGAGCCTAATTAATCCATCATTAACACAAACACATGTGGGCGGAGTCACCTAGTGCAG”, 20700 fluorescence intensity (a.u.). In the case of “TTGAACGATTGTCAATCAGTAGTTTAGTACTTCCATATGTCGGAGTCACCTAGTGCAG” it was 31400 fluorescence intensity (a.u.).
